Data reported in the supplement of paper PMC3724861.
This is one part of the list.

System: T1, Caupolican (Caup) homeodomain DNA-binding domain
T1 sequence: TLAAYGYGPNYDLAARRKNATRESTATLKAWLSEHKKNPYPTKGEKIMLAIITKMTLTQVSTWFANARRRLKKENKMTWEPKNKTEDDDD
Assay: PBM E-score (8-mer, recovered from the published 9-mer minima) (E-score (dimensionless, -0.5 to 0.5)); Drosophila protein; higher = stronger relative binding preference, active = 0.31 or more
Summary of the method: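 Caup's homeodomain DNA-binding domain (residues 214-303) was made by in vitro transcription and translation and applied at 100 nM to custom-designed protein binding microarrays. Each value is an enrichment score that gives relative binding preference for a short DNA word, with higher meaning stronger. The 8-mer values were recovered from published 9-mer scores, each of which was the minimum of its two constituent 8-mer scores. A cutoff of 0.31 marks candidate sites.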

Row | Sequence | PBM E-score
1 | AGCCTGAC | inactive: -0.128
2 | GCATGTAA | active: 0.409
3 | ATGATTGG | inactive: 0.0539
4 | GCTACGAA | inactive: 0.0551
5 | AAACAGCC | inactive: 0.0543
6 | ACTCATCC | inactive: 0.0262
7 | CATACCTC | inactive: 0.13
8 | AGCGTTCA | inactive: -0.157
9 | GGCAAACC | inactive: -0.192
10 | GCGGTGAA | inactive: -0.147
11 | CATCGGAC | inactive: -0.0156
12 | AGCTATGA | inactive: -0.0117
13 | AAATCTGA | inactive: 0.105
14 | TAACCTCA | inactive: 0.014
15 | CACGTATA | inactive: 0.0787
16 | ATTAAGCG | inactive: -0.022
17 | CCTGGGCA | inactive: -0.202
18 | CGTCCGGA | inactive: -0.133
19 | ACGTCTAT | inactive: 0.0892
20 | CCATCAAG | inactive: -0.0956
21 | ACCATCCA | inactive: 0.0462
22 | CCCCATGA | inactive: -0.123
23 | AGAAAACG | inactive: -0.0622
24 | GGACTCCA | inactive: -0.13

Row | Sequence | PBM E-score
25 | ATTATATA | inactive: 0.201
26 | AGGCCGCA | inactive: -0.146
27 | CCGACACA | inactive: 0.127
28 | GCCGGTGA | inactive: -0.118
29 | AATCGCCG | inactive: -0.0738
30 | CACCGTCC | inactive: -0.0881
31 | CGATATCA | inactive: 0.129
32 | ACTGTTCA | inactive: 0.0851
33 | AGGTCCAT | inactive: 0.0386
34 | CACTCACA | inactive: -0.0111
35 | TCGCTAAA | inactive: 0.0105
36 | AACGCAGC | inactive: -0.109
37 | AAGGTAGT | inactive: 0.0568
38 | CGCTTGAG | inactive: -0.188
39 | AAGCGACA | inactive: 0.219
40 | GACACATA | inactive: 0.264
41 | AGGAACTC | inactive: -0.0905
42 | AGTAACGA | inactive: 0.107
43 | AATTTCGT | inactive: 0.11
44 | AGATAAAA | inactive: 0.102
45 | CAGCCGCA | inactive: -0.26
46 | GCAATCGA | inactive: 0.00674
47 | ACCAGCGA | inactive: -0.00099
48 | CGGGTAAC | inactive: -0.0112

Row | Sequence | PBM E-score
49 | ACGTCATG | inactive: 0.15
50 | ATTACGCG | inactive: 0.0345
51 | ATCCTCAA | inactive: -0.00625
52 | ACCTTTGA | ≥ 0.0766
53 | ATTGACAG | inactive: 0.143
54 | GAAAGTCC | inactive: -0.191
55 | AAATTAGA | inactive: 0.0875
56 | TCCAATCA | inactive: -0.0648
57 | CTCGTTGA | inactive: 0.0362
58 | CACCGGAA | inactive: 0.0119
59 | CCATGTGA | inactive: 0.0957
60 | GTATCCAA | inactive: 0.0602
61 | GAATTCAC | inactive: 0.00741
62 | AGACTCAG | inactive: -0.132
63 | AGGACTGC | inactive: -0.157
64 | CACCGATG | inactive: 0.08
65 | CCCGATTA | inactive: 0.0243
66 | GGAGGACC | inactive: -0.246
67 | AGATTTTA | inactive: 0.0905
68 | GCGAAGCA | inactive: -0.0528
69 | CGCAGTTC | inactive: -0.0558
70 | AGTAGCCC | inactive: -0.129
71 | AGTGGCAT | inactive: -0.0302
72 | CCACTAAG | inactive: -0.0833

Row | Sequence | PBM E-score
73 | CTTCGGGC | inactive: -0.167
74 | GGTACTAC | inactive: 0.202
75 | CACACCAG | inactive: 0.004
76 | AATCCCCA | inactive: 0.0171
77 | ACGACGCA | ≥ 0.0334
78 | CGGACTAA | inactive: 0.00339
79 | AGTTTTGC | inactive: 0.11
80 | TAGCTAAA | inactive: -0.0173
81 | GGGAAGAC | inactive: -0.0997
82 | AGGGATGG | inactive: -0.126
83 | CTGCACAG | inactive: -0.0769
84 | ACAGACCA | inactive: 0.0424
85 | ATAGAACC | inactive: -0.103
86 | CAGAGGAC | inactive: -0.0306
87 | ACTAGTAT | inactive: 0.243
88 | CCGGAGAC | inactive: -0.0838
89 | ACGGATCT | inactive: 0.0142
90 | GTGGGCGA | inactive: -0.0754
91 | GTATTCGA | inactive: -0.00876
92 | CTAGCCAC | inactive: -0.151
93 | CCATGAAA | inactive: 0.00449
94 | GCGTTGTA | inactive: 0.249
95 | CTTAGCTA | inactive: 0.0209
96 | ACGCCTCG | inactive: -0.144

Row | Sequence | PBM E-score
97 | CTTCTCTC | inactive: -0.0737
98 | ATCACCAG | inactive: 0.0151
99 | GGTAGTCA | inactive: 0.0126
100 | ACTGAAAA | inactive: -0.0487
101 | CGCGGATA | inactive: 0.00665
102 | ACGAACGC | inactive: -0.0517
103 | ACGTTAGG | inactive: -0.057
104 | TAAAGAAA | inactive: 0.0618
105 | AGCTACGC | inactive: -0.0814
106 | ACATGGGT | inactive: 0.284
107 | TCATAGGA | inactive: 0.114
108 | AAGGATAG | inactive: 0.012
109 | CTGACCGC | inactive: -0.184
110 | GGAACTCA | inactive: -0.0653
111 | AGTAGCAC | inactive: -0.0118
112 | TCATGGAA | inactive: 0.0375
113 | ACAAGGGT | inactive: 0.214
114 | ATCGTGTG | inactive: 0.149
115 | CTGTTGAA | inactive: 0.154
116 | CTTTCCTA | inactive: -0.094
117 | AGGTTGGA | inactive: -0.0253
118 | CAACGTTC | inactive: -0.0881
119 | ATTTCACC | inactive: 0.0435
120 | GTACAAAA | active: 0.323

Row | Sequence | PBM E-score
121 | TACCCCGA | inactive: -0.11
122 | ACTCAAGG | inactive: -0.115
123 | AGAAGTAG | inactive: 0.0359
124 | CAGTTGTA | inactive: 0.214
125 | CGTCAATC | inactive: 0.0893
126 | ATATCCCA | inactive: -0.0219
127 | ACAGGCCA | inactive: -0.0578
128 | ACTTTAAC | inactive: 0.0453
129 | ATTTTGGC | inactive: 0.0116
130 | AGCGGAGA | inactive: -0.0915
131 | CCCTAAGG | inactive: -0.161
132 | AGTGTAAG | inactive: 0.215
133 | ACAAGGGC | inactive: 0.147
134 | CGCGGAAC | inactive: -0.118
135 | ACAGCCAA | inactive: 0.00118
136 | GGCGACAA | inactive: 0.138
137 | CAGGGCGC | inactive: -0.179
138 | GATTGCGC | inactive: -0.0393
139 | TCAGTCAA | inactive: 0.0873
140 | CCCGTGAC | inactive: -0.122
141 | AATCTCCT | inactive: -0.00874
